In PubChem BioAssay AID1645882 (National Center for Advancing Translational Sciences (NCATS), 2021):
Among all 16,000 compounds or so, about 120 (0.75%) were called active. Not shown: some 4% with an inconclusive outcome. Calls come from the whole dose curve; as a rule, active = well fitted inhibition curve with a large enough effect; inconclusive = small, poorly fitted or top-dose-only effect; inactive = no such curve, though single readings can be large or run the other way. The list shows a part of the results.

The molecules below were run against Rap guanine nucleotide exchange factor 3 (Homo sapiens) (UniProt O95398) (assay: Validation qHTS for antagonist of cAMP-regulated guanine nucleotide exchange factor 3 (EPAC1)). Conditions: EPAC1 Rap1B-BODIPY-GDP exchange, fluorescence; series mostly up to 150 µM; activity change, negative = inhibition: at the top concentration.
Chain of UniProt O95398 (O95398 whole entry, looked up): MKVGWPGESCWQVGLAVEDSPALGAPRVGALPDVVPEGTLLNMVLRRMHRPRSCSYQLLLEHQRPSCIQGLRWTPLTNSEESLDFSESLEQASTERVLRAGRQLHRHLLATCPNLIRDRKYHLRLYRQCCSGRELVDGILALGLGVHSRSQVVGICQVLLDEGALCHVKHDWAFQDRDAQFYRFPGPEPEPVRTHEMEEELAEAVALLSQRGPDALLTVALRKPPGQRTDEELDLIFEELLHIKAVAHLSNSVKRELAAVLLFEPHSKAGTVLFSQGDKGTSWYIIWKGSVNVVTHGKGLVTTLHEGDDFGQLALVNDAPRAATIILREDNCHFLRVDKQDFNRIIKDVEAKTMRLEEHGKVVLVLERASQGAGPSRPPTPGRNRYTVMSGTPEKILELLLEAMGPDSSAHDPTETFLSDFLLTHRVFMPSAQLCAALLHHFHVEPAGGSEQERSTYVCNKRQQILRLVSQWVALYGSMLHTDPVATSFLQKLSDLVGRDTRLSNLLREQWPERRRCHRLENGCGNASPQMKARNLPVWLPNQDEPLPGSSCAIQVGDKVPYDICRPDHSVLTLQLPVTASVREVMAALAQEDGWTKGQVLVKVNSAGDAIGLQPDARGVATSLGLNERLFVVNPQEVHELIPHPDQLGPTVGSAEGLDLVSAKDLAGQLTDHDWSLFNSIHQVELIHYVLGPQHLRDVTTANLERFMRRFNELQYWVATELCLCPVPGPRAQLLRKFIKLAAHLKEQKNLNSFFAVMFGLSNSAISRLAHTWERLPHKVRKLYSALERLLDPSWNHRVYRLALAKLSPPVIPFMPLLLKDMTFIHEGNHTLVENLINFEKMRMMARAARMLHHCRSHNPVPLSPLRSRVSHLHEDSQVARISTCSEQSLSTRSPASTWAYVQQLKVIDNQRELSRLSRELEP
How it was run: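 EPAC1 (100 nM) mixed with 250 nM RAP1B-BODIPY-GDP and 50 uM GDP; compounds in concentration series, 5 min at room temperature. Fluorescence (ex 480/em 540 nm) read every 5 min for 30 min; normalized to ATA control and DMSO.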
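Note: plate controls were DMSO for no effect and ATA control for full effect; nearly all actives have a fitted effect of over 75% in size.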

Activity change, negative = inhibition, inactive:
Cc1noc(C)c1-c1cc(NCc2ccccc2)ncn1 11%
O=C(c1csnn1)N1CCC2(CCCN(c3ccncc3)C2)CC1 0.39%
CC1=CC(=O)C2=C(C)CCC3C(C)C(=O)OC3C12 (stereo unspecified) 18.1%
CC(C)(C)[C@@H]1CCC(=O)N(CC[C@H](N=[N+]=[N-])c2ccccc2)CC1 -27.2%
COc1ccc(-c2nc3cc(C)ccc3cc2CN(C(=O)c2ccc(C)s2)C2CC2)cc1OC 4.33%
O=C(/C=C/C(=O)Oc1ccccc1C(=O)O)Oc1ccccc1C(=O)O -1.89%
O=S1(=O)CCOC[C@H](c2ccccc2)N1Cc1cccc(F)c1 3.34%
CCOC(=O)N1CCN(Cc2ccc3c(c2)CN(C(=O)c2noc4c2CCCC4)CCO3)CC1 12.6%
c1ccc2c(c1)Sc1ccccc1N2CCN1CCCC1 -3.41%
O=C1OCCN1/N=C/c1ccc([N+](=O)[O-])o1
NC(=O)c1ccc([N+](=O)[O-])cc1Cl 16.5%
COCc1c(C(=O)N2CCN(c3ccccc3)CC2)cnn1-c1nccc(-c2ccco2)n1 7.76%
Cc1cccnc1-c1cccc2c1OC(CNC(=O)Cc1c(C)noc1C)C2 (stereo unspecified) 27.1%
CCOC(=O)[C@H](CCc1ccccc1)N[C@H]1CS[C@H](c2cccs2)CN(CC(=O)O)C1=O -4.47%
CCCCC[C@H]1CN(Cc2ccccc2)C(=O)[C@@H]1CC(=O)NCc1ccc(OC)cc1 -11%
O=C1NC(=O)/C(=C/c2ccc3nccnc3c2)S1 21% [at 75.8 µM]
CN1CCCN(C(=O)[C@@H]2C[C@@H](Sc3nc4ccccc4[nH]3)CN2Cc2ccc(-c3ccccc3)cc2)CC1 19.3%
NC(N)=NN=C(/C=C/c1ccc([N+](=O)[O-])o1)/C=C/c1ccc([N+](=O)[O-])o1 -6.1%
CCC1CN(Cc2cn[nH]c2-c2ccc(OC)cc2)Cc2cc(OC)ccc2O1 (stereo unspecified) -10.2%
CCc1cccc2c(C(O)(c3c[nH]c4c(CC)cccc34)c3c[nH]c4c(CC)cccc34)c[nH]c12 -0.649%
c1ccc(-c2cccc(N3CCC4(CCNCC4)CC3)c2)cc1 16.5%
CO/N=C(\C(=O)N[C@@H]1C(=O)N2C(C(=O)[O-])=C(C[n+]3ccc(N)n3CCO)CS[C@H]12)c1csc(N)n1 18.1%
c1ccc(CNc2ncnc3ccc(-c4ccoc4)cc23)cc1 4.34%
COc1ccc(-c2cc3ncc(C)n3c(Nc3ncccc3C(N)=O)n2)cc1OC -1.24% [at 75.8 µM]
CN(C)c1ncc2nc(-c3ccc(F)cc3)c(=O)n(-c3ccccc3)c2n1 51.6%
O=C1CCNCCN1[C@H](CO)Cc1ccccc1 11%
CCc1cc(C(=O)N2CCOc3ccc(CN4CCN(Cc5ccccn5)CC4)cc3C2)no1 10%
O=C(NCc1nnc2n1CCN(C(=O)c1cccc(Cl)c1)CC2)C1CC1 -8.32%
CN(C)CC/C=C1\c2ccccc2Sc2ccc(Cl)cc21
c1ccc([C@H]2CN3CCSC3=N2)cc1
CN1C[C@H]2c3ccccc3Oc3ccc(Cl)cc3[C@@H]2C1 -2.83%
Cc1oc(-c2ccccc2NC(=O)c2ccccn2)nc1CNC(=O)c1cccc(C#CC(C)(C)O)c1 -6.52%
CC[C@]1(O)C[C@@H]2CN(CCc3c([nH]c4ccccc34)[C@](C(=O)OC)(c3cc4c(cc3OC)N(C=O)[C@H]3[C@@](O)(C(=O)OC)[C@H](C(=O)OC)[C@@]5(CC)C=CCN6CC[C@]43[C@H]65)C2)C1 -5.71%
O=S1(=O)CCO[C@H]2Cc3ccccc3[C@H]2N1Cc1ccccc1Br 5.3%
CCC(=O)O[C@]1(C(=O)CCl)[C@@H](C)C[C@H]2[C@@H]3CCC4=CC(=O)C=C[C@]4(C)[C@@]3(F)[C@@H](O)C[C@@]21C -9.91%
Cc1c(C(=O)NCC2(N3CCOCC3)CCCC2)cnn1-c1nccc(-c2ccccc2F)n1 -12.7%
CC(=O)OC1CC(OC(C)=O)[C@]2(C)C(CC(=O)[C@]3(C)C2CC[C@@]2(C)C(c4ccoc4)OC(=O)C4O[C@@]423)C1(C)C (stereo partly specified) 0.54%
Cc1ccc([N+](=O)[O-])cc1S(=O)(=O)N(C)C -6.37% [at 75.8 µM]
CC#C[C@]1(O)CC[C@H]2[C@@H]3CCC4=CC(=O)CCC4=C3[C@H](c3ccc(N(C)C)cc3)C[C@@]21C -2.1%
CN(C)c1nc2cc3c(cc2cc1CN(CC1CCCO1)C(=O)c1cccc(F)c1)OCO3 (stereo unspecified) 13.3%
O=C(c1ccncc1)N1CCC2(CCC(CNC(=O)C3(N4CCOCC4)CCCCC3)O2)CC1 (stereo unspecified) 6.11%
Cc1c(O)c(=O)ccn1C 6.69%
COc1cc(=O)n2c(c1C(=O)NC(C)c1ccco1)CCN(C(=O)c1[nH]c(C)cc1C)CC2 (stereo unspecified) -1.48%
C#C[C@]1(OC(C)=O)CCC2C3CCC4=CC(=O)CCC4C3CC[C@]21C (stereo partly specified) -12.6%
C=C(Nc1ccc(OCC)cc1)Nc1ccc(OCC)cc1
O=C(c1cc(C(F)(F)F)cc(C(F)(F)F)c1)N1CCC2(CCCN(Cc3ccncc3)C2)CC1 -1.48%
Cn1c(=O)c(-c2cccs2)nc2cnc(N3CCNCC3)nc21 23.4%
COc1ccc(C(=O)N2CCC3(CCN(Cc4ccccc4)CC3)CC2)cc1 12.4%
O=C(O)CCCCCCCCc1cn(CN2C(=O)c3ccccc3C2=O)nn1 6.62%
O=C(O)C=Cc1ccc(Cn2ccnc2)cc1 7.55%
Cc1ncc2c(c1CNS(=O)(=O)N(C)C)CCN(C(=O)c1ccccc1F)C2 26.7%
Oc1cc2c(cc1O)[C@H](c1ccccc1)CNCC2 0.272%
COc1ccccc1CC(Cc1nc2ccccc2[nH]1)c1nc2ccccc2[nH]1 (stereo unspecified) -18.7%
COC(=O)c1ccc(CN2CCC3(CCC(CNC(=O)c4ccccc4)O3)CC2)cc1 (stereo unspecified) 14.2%
COC(=O)N1CCC[C@@]2(CCN(Cc3cc(C(F)(F)F)cc(C(F)(F)F)c3)C2)C1 11.1%
COCc1c(C(=O)N2CCCC(C)C2)cnn1-c1nccc(-c2cc(C)sc2C)n1 (stereo unspecified) 9.72%
OC(c1cccnc1)c1ccc2c(c1)CN(Cc1ccc(-c3ccccc3Cl)o1)CCO2 (stereo unspecified) 7.6%
c1ccc(C(c2ccccc2)N2CCC3(CCNCC3)CC2)cc1 4.21%
Clc1ccccc1-c1nccc(NCc2cccs2)n1 -8.7%
COCCNc1nc(-c2ccccc2C(F)(F)F)nc2ccccc12 9.31%
N#CCCn1c(=O)c(CCc2ccccc2)nc2cnc(Oc3cccc(Cl)c3)nc21 4.21%
